Laboratory results published in the supplement of paper PMC3334620.
In all, about 33,000 sequences were measured (“E-score (-0.5 to 0.5)”: median about -0.013, highest 2% from about 0.3 on). The list shows a part of the results.

Biological target: T1, Msn1 (UniProt P22148)
T1 sequence: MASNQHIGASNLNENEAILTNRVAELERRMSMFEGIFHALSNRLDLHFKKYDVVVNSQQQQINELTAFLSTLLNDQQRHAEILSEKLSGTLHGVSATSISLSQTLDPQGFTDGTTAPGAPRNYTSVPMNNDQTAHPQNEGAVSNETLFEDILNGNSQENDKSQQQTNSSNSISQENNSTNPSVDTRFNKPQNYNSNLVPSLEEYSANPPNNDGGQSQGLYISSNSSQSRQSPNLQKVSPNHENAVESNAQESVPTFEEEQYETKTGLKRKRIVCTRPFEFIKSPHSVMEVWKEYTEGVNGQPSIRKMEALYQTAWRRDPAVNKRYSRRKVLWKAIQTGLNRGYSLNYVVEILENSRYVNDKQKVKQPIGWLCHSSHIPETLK
Experiment: PBM E-score (8-mer binding enrichment) (E-score (-0.5 to 0.5)); higher = stronger / more preferred TF binding; most listed sequences are background and not binding sites
Conditions: protein concentration: 200 nM; construct: GST-full length
In short: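 E-scores (a modified Wilcoxon-Mann-Whitney statistic) were assigned by the Universal PBM Analysis Suite to every ungapped eight-base word pooled with its reverse complement. The input came from universal all-10-mer Agilent arrays made double-stranded by primer extension and probed with GST-tagged yeast transcription factors at about 100-200 nM. Fluorescent anti-GST detected bound protein, and masliner normalised the scans.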

| Sequence | PBM E-score |
| --- | --- |
| ATCTTGTG | -0.0155 |
| CCCCGGCC | -0.234 |
| CATAACCG | 0.0359 |
| AGCATTCG | -0.173 |
| ATCATAAC | 0.0912 |
| GGATCTTA | 0.0711 |
| CCAGTAGA | -0.0137 |
| CTAGAAGC | -0.134 |
| AGGATGCC | -0.214 |
| ACAGATTA | -0.0624 |
| AGTAGAAC | -0.0741 |
| ACCTTAGA | -0.011 |
| AGAAGCTG | 0.00291 |
| CAGGGCCG | -0.158 |
| AGTATAAC | -0.0244 |
| CGGAGTCA | -0.164 |
| GGTTAACA | 0.0815 |
| CCCGGCTA | -0.175 |
| CAACCCTC | -0.0735 |
| ATTGCTGC | -0.0878 |
| CCTGGCAC | -0.242 |
| AATTAGTG | 0.33 |
| CTATTAAA | 0.179 |
| TCGTTCAA | 0.103 |
| GAATCCCA | -0.15 |

| Sequence | PBM E-score |
| --- | --- |
| CAGGTCTC | -0.00322 |
| TATCCCGA | 0.0915 |
| ATCTTAAC | 0.168 |
| CAAAAAGC | 0.172 |
| CGCGCGGC | 0.0924 |
| AGGTTTAG | -0.15 |
| AACAATTC | 0.0237 |
| ATTGTCCA | 0.466 |
| ACTGAACC | -0.0826 |
| CTGATGTC | 0.282 |
| GGGCATCA | -0.253 |
| AACGGCGA | 0.26 |
| CGGTACAC | 0.123 |
| GACTGATA | -0.122 |
| AGCTCCGC | 0.00957 |
| ACTAACGC | -0.108 |
| AACAAGAC | 0.135 |
| AATGGTGC | -0.0712 |
| AGGGGGGA | -0.317 |
| ATTCTTCA | 0.0047 |
| AATATCTG | 0.0275 |
| TAGTTCCA | 0.162 |
| CACTGGGA | 0.131 |
| ACGTATCT | -0.0508 |
| CCAATGCC | -0.181 |

| Sequence | PBM E-score |
| --- | --- |
| ATCGATTA | 0.0588 |
| GCACTACA | -0.194 |
| AAGGGCCT | -0.235 |
| GAAACCGC | 0.113 |
| AATGTTGG | 0.0344 |
| ATTTAACG | 0.225 |
| CGTAGCCC | -0.24 |
| AATGGACG | 0.185 |
| GAGCGTCC | -0.0385 |
| AGAGTCGC | -0.0259 |
| ATGACACC | 0.0663 |
| ACTCCTAG | -0.216 |
| GGGGCTGA | -0.148 |
| TCGGAACA | 0.268 |
| CGTATTTA | 0.0612 |
| CAGGGCCC | -0.274 |
| ACTCTCAA | -0.188 |
| AGGCTACA | -0.0622 |
| CGATCAGC | -0.0543 |
| AAGGTTAG | -0.0111 |
| AGATCCCG | 0.143 |
| GGCCAGTA | -0.205 |
| CTGTTAAC | 0.134 |
| CACCTCTA | -0.0449 |
| CCAGCACC | -0.33 |

| Sequence | PBM E-score |
| --- | --- |
| CCTTACCA | -0.00326 |
| AATGTTAT | 0.131 |
| ACCACCCC | -0.311 |
| ACTTAAAG | 0.0376 |
| CGGCTTGA | -0.0233 |
| TAAACAAA | 0.112 |
| CAACGCCC | -0.0372 |
| CCGACAGG | -0.0401 |
| ATCGCGTG | 0.143 |
| CAATACAG | 0.0204 |
| CTACAATC | 0.0383 |
| CTTTGGAA | 0.0683 |
| CGGATATA | 0.0681 |
| CCTTAATC | -0.105 |
| CGCTGCTC | -0.155 |
| AAATTCGC | 0.159 |
| CACCCGCA | -0.178 |
| GCGCTTAC | -0.0967 |
| AACAACAT | -0.0176 |
| AGTGTAGG | -0.0552 |
| ACTCAAGT | -0.113 |
| TGCGGACA | 0.427 |
| GGGCTACA | -0.0374 |
| GACATAAC | 0.396 |
| CACAGAGC | 0.0229 |

| Sequence | PBM E-score |
| --- | --- |
| AGATTTTG | 0.0738 |
| CACGTGCA | 0.0963 |
| CTTAGCAA | -0.0942 |
| ACTGATTC | 0.0073 |
| GAAATTCA | 0.103 |
| AGCTTAAA | 0.0461 |
| CGGTAAGC | -0.182 |
| AACCTATG | -0.0616 |
| GTCGCGAC | 0.349 |
| CCGCAAGC | -0.199 |
| GCTTCAAA | -0.109 |
| GGACCTCA | -0.0111 |
| ATGAGGGC | -0.168 |
| ACAAAGGC | 0.098 |
| AATGTGCG | -0.0792 |
| AGAACATC | 0.0117 |
| CTAACTTC | 0.00461 |
| GGCACTGA | 0.00441 |
| AGCTTCTG | -0.0868 |
| AACGTGCC | -0.152 |
| AGACATGA | 0.226 |
| GGAACTTA | 0.0221 |
| GCTTCTGA | -0.0591 |
| ATTCACAC | 0.00376 |
| GCTACGCA | -0.215 |

| Sequence | PBM E-score |
| --- | --- |
| AAGAGCGT | 0.128 |
| GTGAGCAA | -0.0451 |
| GCGATGCC | -0.171 |
| CCCCTCAC | -0.143 |
| CCTAGGAC | 0.261 |
| GAGTCAGC | -0.246 |
| ACAAATCG | 0.276 |
| AAGATAGG | -0.0615 |
| AAGGCCCG | -0.199 |
| ATTGGGGC | -0.08 |
| AGCATATG | -0.151 |
| TAAACCCA | -0.0338 |
| CTTATCGA | 0.141 |
| AGCTCCAT | -0.251 |
| GGTATATA | 0.185 |
| CATGAGGC | -0.225 |
| GTCTATAA | 0.158 |
| ACACTATA | 0.17 |
| AGATAGAA | -0.00957 |
| ATCAACAG | 6e-05 |
| ACAGGGAC | 0.324 |
| CTCCGTGC | -0.0848 |
| ACTCCCAG | 0.0682 |
| CATCCGAC | 0.147 |
| ACAGGATG | 0.0943 |

| Sequence | PBM E-score |
| --- | --- |
| ACAGGAGA | 0.122 |
| TGGGAGAA | -0.209 |
| ACATCCGC | 0.227 |
| ATCAGCCG | -0.01 |
| GTGTTGCA | -0.105 |
| AGCCCTAC | -0.128 |
| CTATTAAC | 0.241 |
| CAATAGCG | -0.138 |
| GGGATTAA | 0.0402 |
| ATAAGGAA | -0.204 |
| GTCATCTA | 0.151 |
| AGAAATCT | -0.0155 |
| GACATGCC | 0.337 |
| ATTTTCGG | 0.142 |
| ATTGACTG | -0.00757 |
| TTATACAA | 0.136 |
| CATCTCCA | -0.0799 |
| CCGGGACG | -0.0555 |
| ACACATTG | 0.171 |
| ACGAACAT | 0.181 |
| CGCTGTAA | 0.0882 |
| AGAATTCA | 0.0752 |
| CTTCTGGA | -0.0254 |
| ACTGCAGT | 0.0373 |
| TGCTTCCA | -0.146 |

| Sequence | PBM E-score |
| --- | --- |
| AGGGCCAG | -0.278 |
| ACTCCCAT | -0.0704 |
| GGCCTCCC | -0.318 |
| AAATTGTT | 0.143 |
| ATATGGTC | 0.155 |
| CCACGCAC | -0.11 |
| CTCGCTTA | -0.0567 |
| ATCTGCCA | -0.0272 |
| ACCACACA | 0.0342 |
| GGAGGGCC | -0.273 |
| CTGACCTA | 0.0361 |
| ACAGCTGC | -0.0289 |
| ATAACCTG | -0.054 |
| ATGATTGA | -0.0128 |
| ACCGCTGC | -0.271 |
| CATTGTAA | 0.134 |
| AACCGCAG | -0.113 |
| ACGACTCC | -0.181 |
| CATCATGA | 0.0772 |
| CCTAACGC | -0.129 |
| AGCTGAAT | -0.00627 |
| CATCAGTA | 0.0122 |
| CACTGTTA | -0.116 |
| AACCGAGG | -0.21 |
| CGTTCCTC | -0.12 |

| Sequence | PBM E-score |
| --- | --- |
| GAGTTGTA | 0.12 |
| CCCCGCCG | -0.371 |
| CGACTGAG | -0.14 |
| AGTGGAAT | -0.028 |
| CATTAACA | 0.194 |
| ATAACTTA | 0.13 |
| AGTCTAAT | 0.0556 |
| GATTGACA | 0.0347 |
| AGGGTCTG | -0.326 |
| AGACATTC | 0.445 |
| CCAAAGAA | -0.0182 |
| CAGACCAG | -0.044 |
| CCTGTGCA | -0.255 |
| GCCACAAC | -0.00493 |
| CCACAGGC | -0.399 |
| AGAGCGCC | -0.0862 |
| AGTACCGA | 0.0931 |
| ACGAGCCA | 0.0269 |
| GATTGACC | -0.0794 |
